# Measurements: PubChem BioAssay (Tox21)
# The shares of active, inactive and inconclusive entries below differ from those in the screen. For part of these data: No potency is given beside an inconclusive call; the fits are too rough. Activity calls are given as the source filed them. Unless noted, calls follow the shape of the dose curve; as a rule, active = well fitted curve in the direction sought with a large enough effect in the repeat runs; inconclusive = weak or mixed curves; inactive = no such curve, though single readings can be large; an effect the other way counts as inactive or inconclusive.
# Assays:
# [1] = qHTS assay for identifying genotoxic compounds that show differential cytotoxicity against isogenic chicken DT40 cell lines with known DNA damage response pathways - Rev3 mutant cell line (AID 743014); conditions: chicken DT40 Rev3-/- viability, CellTiter-Glo, 40 h; series mostly up to 68.4 µM; also: potency is read from the fitted curve at half-maximal effect; nearly all actives have a fitted effect of over 55% in size
# [2] = qHTS assay for identifying genotoxic compounds that show differential cytotoxicity against isogenic chicken DT40 cell lines with known DNA damage response pathways - Rad54/Ku70 mutant cell line (AID 743015); conditions: DT40 Rad54/Ku70 mutant viability, CellTiter-Glo, 40 h; activity change, negative = cytotoxicity: at 66.8 µM (top of the series); also: nearly all actives have a fitted effect of over 60% in size; also: potency is read from the fitted curve at half-maximal effect
# [3] = biological target: Androgen receptor (Homo sapiens) (UniProt P10275); assay: qHTS assay to identify small molecule agonists of the androgen receptor (AR) signaling pathway (AID 743036; active = well fitted activation curve with a large enough effect in the signal ratio in the repeat runs, with a control signal flat, not every such curve was filed as active; inconclusive = weak or mixed curves, or effect the other way; inactive = no such curve, though single readings can be large or run the other way; the % refers to the signal ratio); conditions: HEK293 AR-UAS-bla GripTite, beta-lactamase FRET ratio, 16 h; activation: at 62.4 µM (top of the series) unless noted
# How it was run: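 Beta-lactamase under UAS control, stably integrated in HEK293 GripTite cells, reports receptor activation. After 16 h compound treatment, cells received FRET substrate for 2 h at room temperature before fluorescence reading.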
# [4] = qHTS assay to identify small molecule antagonists of the thyroid receptor (TR) signaling pathway - cell viability counter screen (AID 743064); conditions: GH3.TRE-Luc viability, CellTiter-Fluor, 24 h; activity change, negative = cytotoxic: at 70.3 µM (top of the series) unless noted; also: potency is read from the fitted curve at half-maximal effect; nearly all actives have a fitted effect of over 50% in size
# How it was run: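 Compounds were tested on GH3.TRE-Luc cells in the presence of T3 at 1 nM final. Following 23.5 h at 37 °C, cell viability was quantified by CellTiter-Fluor.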
# [5] = biological target: Glucocorticoid receptor (Homo sapiens) (UniProt P04150); assay: qHTS assay to identify small molecule antagonists of the glucocorticoid receptor (GR) signaling pathway (AID 720692; active = well fitted inhibition curve with a large enough effect in the signal ratio in the repeat runs, not every such curve was filed as active; inconclusive = weak or mixed curves, or effect the other way; inactive = no such curve, though single readings can be large or run the other way; the % refers to the signal ratio); conditions: GR-bla HeLa, beta-lactamase FRET ratio, dexamethasone-stimulated, 18 h; activity change, negative = inhibition: at 58.5 µM (top of the series) unless noted
# How it was run: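 Fluorescence from cleaved LiveBLAzer B/G FRET substrate reports GRE-driven beta-lactamase in HeLa cells; compounds are tested against 5 nM dexamethasone (final) over 18 h at 37 C, substrate incubation 2 h at room temperature.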
# [6] = qHTS assay for identifying genotoxic compounds that show differential cytotoxicity against isogenic chicken DT40 cell lines with known DNA damage response pathways - wild type cell line (AID 743012); conditions: DT40 wild type chicken cells viability, CellTiter-Glo, 40 h; activity change, negative = cytotoxicity: at 68.4 µM (top of the series) unless noted; also: potency is read from the fitted curve at half-maximal effect; nearly all actives have a fitted effect of over 60% in size
# How it was run: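 Quantitative HTS on parental DT40 cells: 40 h compound treatment at 37 C/5% CO2, with viability then determined by CellTiter-Glo luminescence. Values serve as the DNA repair-proficient reference for differential cytotoxicity.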
# Aromatase (Homo sapiens) = Aromatase (Homo sapiens) (UniProt P11511); assay: qHTS assay to identify aromatase inhibitors (AID 743083); also: nearly all actives have a fitted effect of over 55% in size
# [7] = biological target: Peroxisome proliferator-activated receptor gamma (Homo sapiens) (UniProt P37231); assay: qHTS assay to identify small molecule agonists of the peroxisome proliferator-activated receptor gamma (PPARg) signaling pathway (AID 743094; active = well fitted activation curve with a large enough effect in the signal ratio in the repeat runs, not every such curve was filed as active; inconclusive = weak or mixed curves, or effect the other way; inactive = no such curve, though single readings can be large or run the other way; the % refers to the signal ratio); conditions: HEK293H PPARg-UAS-bla, beta-lactamase FRET ratio, 17 h; activation: at 57 µM (top of the series) unless noted
# How it was run: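 Stably transfected HEK293H cells (GeneBLAzer PPARg UAS-bla) were incubated with test substances for 17 h at 37C after a 5 h pre-incubation; beta-lactamase activity was then detected by FRET substrate fluorescence.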
# [8] = qHTS assay to identify small molecule antagonists of the glucocorticoid receptor (GR) signaling pathway - cell viability counter screen (AID 720693); conditions: GR-bla HeLa viability, CellTiter-Glo luminescence, 18 h, with 5 nM dexamethasone present; series mostly up to 58.5 µM; also: nearly all actives have a fitted effect of over 55% in size
# [9] = qHTS assay to identify aromatase inhibitors - cell viability counter screen (AID 743084); conditions: MCF-7 aro ERE viability, CellTiter-Fluor, 24 h; activity change, negative = cytotoxicity: at 70.3 µM (top of the series);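 also: cells stimulated with testosterone during compound exposure; nearly all actives have a fitted effect of over 55% in size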
# [10] = qHTS assay to identify small molecule antagonists of the androgen receptor (AR) signaling pathway - cell viability counter screen (AID 743033; also: potency is read from the fitted curve at half-maximal effect; nearly all actives have a fitted effect of over 45% in size)
# [11] = qHTS assay to identify small molecule antagonists of the estrogen receptor alpha (ER-alpha) signaling pathway using the BG1 cell line - cell viability counter screen (AID 743081); conditions: BG1Luc4E2 viability, CellTiter-Fluor, 22 h; activity change, negative = cytotoxicity: at 70.3 µM (top of the series);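 also: compound given together with 17beta-estradiol as the ER stimulus; potency is read from the fitted curve at half-maximal effect; nearly all actives have a fitted effect of over 45% in size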
# [12] = biological target: Estrogen receptor (Homo sapiens) (UniProt P03372); assay: qHTS assay to identify small molecule agonists of the estrogen receptor alpha (ER-alpha) signaling pathway using the BG1 cell line (AID 743079); conditions: BG1Luc4E2 cells, ERE-luciferase agonist, 22 h; activation: at 70.3 µM (top of the series) unless noted; also: nearly all actives have a fitted effect of over 20% in size
# [13] = qHTS assay to identify small molecule antagonists of the estrogen receptor alpha (ER-alpha) signaling pathway using the BG1 cell line (AID 743080; calls by dose curve;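 also: BG1 cells stimulated with 17beta-estradiol alongside compound; potency is read from the fitted curve at half-maximal effect; nearly all actives have a fitted effect of over 25% in size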); conditions: BG1Luc4E2 ERE-luciferase antagonist mode, luminescence; activity change, negative = inhibition: at 70.3 µM (top of the series) unless noted
# How it was run: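 Luminescence from a 4×ERE-luciferase reporter in BG1-Luc-4E2 cells served as read-out. Cells, pre-cultured 5 days in stripped-serum phenol-red-free medium, were exposed to compound with 17beta-estradiol co-stimulation for 21.5 h at 37 C.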
# Tags tell the direction and shape of the fitted curve.
# UniProt P11511, sequence (P11511 whole entry, looked up): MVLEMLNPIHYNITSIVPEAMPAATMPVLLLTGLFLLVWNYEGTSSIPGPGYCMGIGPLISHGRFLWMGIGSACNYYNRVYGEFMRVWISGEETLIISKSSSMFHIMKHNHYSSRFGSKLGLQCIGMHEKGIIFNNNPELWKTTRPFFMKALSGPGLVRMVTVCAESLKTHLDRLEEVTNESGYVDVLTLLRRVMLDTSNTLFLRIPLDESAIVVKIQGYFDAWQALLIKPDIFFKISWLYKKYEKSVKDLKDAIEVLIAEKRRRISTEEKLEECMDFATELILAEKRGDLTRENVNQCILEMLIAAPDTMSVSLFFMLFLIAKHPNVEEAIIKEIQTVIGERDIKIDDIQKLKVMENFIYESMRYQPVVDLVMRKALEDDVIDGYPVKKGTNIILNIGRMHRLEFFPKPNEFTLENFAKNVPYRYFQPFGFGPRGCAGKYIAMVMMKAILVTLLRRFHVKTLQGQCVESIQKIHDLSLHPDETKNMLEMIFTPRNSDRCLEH
# UniProt P03372, sequence (P03372 whole entry, looked up): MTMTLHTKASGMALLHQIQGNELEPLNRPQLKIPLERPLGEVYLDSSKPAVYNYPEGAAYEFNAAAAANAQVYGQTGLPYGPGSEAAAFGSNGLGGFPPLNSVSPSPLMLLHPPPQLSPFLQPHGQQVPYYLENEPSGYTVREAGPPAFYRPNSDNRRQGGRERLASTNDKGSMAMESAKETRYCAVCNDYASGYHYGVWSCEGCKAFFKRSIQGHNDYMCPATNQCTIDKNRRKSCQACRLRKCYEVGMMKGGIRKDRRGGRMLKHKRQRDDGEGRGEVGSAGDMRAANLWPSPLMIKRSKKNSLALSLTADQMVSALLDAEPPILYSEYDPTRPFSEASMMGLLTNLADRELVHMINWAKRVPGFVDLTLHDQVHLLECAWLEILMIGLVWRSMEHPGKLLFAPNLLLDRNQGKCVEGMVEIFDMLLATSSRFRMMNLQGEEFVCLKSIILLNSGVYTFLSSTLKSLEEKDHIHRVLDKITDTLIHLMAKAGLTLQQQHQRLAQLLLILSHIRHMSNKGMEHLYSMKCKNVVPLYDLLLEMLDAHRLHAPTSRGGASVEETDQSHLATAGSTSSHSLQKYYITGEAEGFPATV
# UniProt P04150, sequence (P04150 whole entry, looked up): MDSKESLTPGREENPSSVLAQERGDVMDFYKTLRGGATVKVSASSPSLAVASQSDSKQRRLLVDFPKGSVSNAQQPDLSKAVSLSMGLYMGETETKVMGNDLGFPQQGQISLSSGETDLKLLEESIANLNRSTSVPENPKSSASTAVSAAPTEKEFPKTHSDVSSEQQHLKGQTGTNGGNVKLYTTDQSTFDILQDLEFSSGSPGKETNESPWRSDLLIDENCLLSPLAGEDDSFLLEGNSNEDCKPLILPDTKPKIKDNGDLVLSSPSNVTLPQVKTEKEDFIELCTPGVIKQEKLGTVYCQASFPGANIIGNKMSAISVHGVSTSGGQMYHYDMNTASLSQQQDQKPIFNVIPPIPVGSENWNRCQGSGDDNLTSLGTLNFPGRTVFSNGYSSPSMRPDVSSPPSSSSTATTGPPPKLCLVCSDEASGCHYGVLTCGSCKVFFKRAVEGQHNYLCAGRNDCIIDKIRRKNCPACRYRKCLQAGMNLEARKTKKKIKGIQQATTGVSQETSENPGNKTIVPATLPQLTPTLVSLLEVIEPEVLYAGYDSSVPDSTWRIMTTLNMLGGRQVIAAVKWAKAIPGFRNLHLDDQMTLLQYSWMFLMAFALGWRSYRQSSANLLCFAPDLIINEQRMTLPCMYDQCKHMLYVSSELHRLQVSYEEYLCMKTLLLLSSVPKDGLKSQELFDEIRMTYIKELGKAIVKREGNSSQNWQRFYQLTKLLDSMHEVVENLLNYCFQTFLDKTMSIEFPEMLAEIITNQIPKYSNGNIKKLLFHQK
# UniProt P37231, sequence (P37231 whole entry, looked up): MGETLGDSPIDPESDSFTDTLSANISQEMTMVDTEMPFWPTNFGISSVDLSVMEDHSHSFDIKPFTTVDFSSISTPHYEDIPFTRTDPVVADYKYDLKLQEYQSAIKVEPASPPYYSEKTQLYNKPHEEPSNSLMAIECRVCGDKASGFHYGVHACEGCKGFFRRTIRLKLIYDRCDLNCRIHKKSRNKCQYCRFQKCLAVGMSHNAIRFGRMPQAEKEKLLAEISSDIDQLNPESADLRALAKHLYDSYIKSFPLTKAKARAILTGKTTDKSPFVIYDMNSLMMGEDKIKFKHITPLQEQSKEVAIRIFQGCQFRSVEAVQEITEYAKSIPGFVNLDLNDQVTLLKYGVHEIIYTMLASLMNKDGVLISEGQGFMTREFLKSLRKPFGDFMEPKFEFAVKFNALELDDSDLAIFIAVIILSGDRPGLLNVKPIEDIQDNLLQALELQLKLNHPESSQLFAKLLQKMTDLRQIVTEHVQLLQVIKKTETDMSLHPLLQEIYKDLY
# UniProt P10275, sequence (P10275 whole entry, looked up): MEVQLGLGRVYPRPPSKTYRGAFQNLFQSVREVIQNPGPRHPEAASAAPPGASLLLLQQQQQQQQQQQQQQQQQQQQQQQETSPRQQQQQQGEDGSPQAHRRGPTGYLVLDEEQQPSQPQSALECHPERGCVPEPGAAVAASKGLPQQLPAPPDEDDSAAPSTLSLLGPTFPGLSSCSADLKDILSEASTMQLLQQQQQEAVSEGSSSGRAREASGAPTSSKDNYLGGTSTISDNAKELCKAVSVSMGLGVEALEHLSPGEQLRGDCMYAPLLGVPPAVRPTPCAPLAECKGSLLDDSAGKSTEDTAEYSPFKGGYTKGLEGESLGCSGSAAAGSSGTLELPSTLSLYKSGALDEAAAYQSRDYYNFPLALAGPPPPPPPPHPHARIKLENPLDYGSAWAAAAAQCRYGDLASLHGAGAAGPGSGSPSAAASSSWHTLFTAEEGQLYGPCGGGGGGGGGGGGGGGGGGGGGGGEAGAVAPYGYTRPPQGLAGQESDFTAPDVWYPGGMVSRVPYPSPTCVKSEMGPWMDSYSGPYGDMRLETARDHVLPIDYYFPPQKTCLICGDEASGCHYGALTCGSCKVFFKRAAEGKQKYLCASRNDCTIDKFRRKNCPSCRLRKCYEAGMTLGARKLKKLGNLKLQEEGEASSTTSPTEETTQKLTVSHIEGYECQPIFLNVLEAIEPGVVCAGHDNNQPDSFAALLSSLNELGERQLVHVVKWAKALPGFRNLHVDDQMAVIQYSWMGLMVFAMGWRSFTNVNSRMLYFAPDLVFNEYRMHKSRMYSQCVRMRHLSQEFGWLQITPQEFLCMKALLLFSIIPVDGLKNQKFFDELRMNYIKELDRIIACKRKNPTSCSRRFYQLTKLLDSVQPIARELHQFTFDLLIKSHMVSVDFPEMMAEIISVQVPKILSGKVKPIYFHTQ
structure (smiles),measurement,setting,value
CCC(=O)O[C@]1(c2ccccc2)CCN(C)C[C@H]1C,Potency,[1],"inconclusive [cytotoxic, partial curve]"
same,Potency,[2],"inconclusive [cytotoxic, partial curve, poor fit]"
same,Potency,[3],inactive
same,Potency,[4],"inconclusive [cytotoxic, single point]"
c1ccc2c(c1)Sc1ccccc1N2C[C@@H]1CN2CCC1CC2,Potency,[5],inactive
same,Potency,[6],"inconclusive [cytotoxic, partial curve, poor fit]"
same,Potency,Aromatase (Homo sapiens),inactive
same,Potency,[7],inactive
C=CCC1([C@@H](C)CCC)C(=O)NC(=O)NC1=O,Potency,[8],inactive
same,Potency,[6],"inconclusive [cytotoxic, partial curve]"
same,Potency,[1],"inconclusive [cytotoxic, partial curve]"
same,Potency,[2],"inconclusive [cytotoxic, partial curve, poor fit]"
same,Potency,[9],inactive
Clc1cc(Cl)c(Cl)cc1Cl,Potency,Aromatase (Homo sapiens),inactive
CCC(=O)O[C@@](Cc1ccccc1)(c1ccccc1)[C@@H](C)CN(C)C,Potency,[2],inactive
same,Potency,[10],"inconclusive [cytotoxic, partial curve, poor fit]"
same,Potency,[4],"inconclusive [cytotoxic, single point]"
same,Potency,[11],"inconclusive [rising, full curve]"
CCC1(C)CC(=O)NC(=O)C1,Potency,[2],inactive
same,Potency,[12],inactive
same,Potency,[13],"inconclusive [falling, partial curve]"
